# Assay results from the supplement of paper PMC8728848.
# Some of the results follow.
# B1: Cohesin-hLangerin (Homo sapiens) (protein)
# chain: LDDLDAVRIKVDTVNAKPGDTVRIPVRFSGIPSKGIANCDFVYSYDPNVLEIIEIEPGDIIVDPNPDKSFDTAVYPDRKIIVFLFAEDSGTGAYAITKDGVFATIVAKVKEGAPNGLSVIKFVEVGGFANNDLVEQKTQFFDGGANVGDTTEPATPTTPVTTPTTTDDLDAASYPRFMGTISDVKTNVQLLKGRVDNISTLDSEIKKNSDGMEAAGVQIQMVNESLGYVRSQFLKLKTSVEKANAQIQILTRSWEEVSTLNAQIPELKSDLEKASALNTKIRALQGSLENMSKLLKRQNDILQVVSQGWKYFKGNFYYFSLIPKTWYSAEQFCVSRNSHLTSVTSESEQEFLYKTAGGLIYWIGLTKAGMEGDWSWVDDTPFNKVQSARFWIPGEPNNAGNNEHCGNIKAPSLQAWNDAPCDKTFLFICKRPYVPSEPHHHHHH
# Key:
# Test in all cases: glycan array binding signal (z-score within array); higher = stronger binding
# Details in all cases: glycan notation: IUPAC condensed, linker removed
# [1] = molecular target: GalNAc3S(b1-4)[Fuc(a1-3)]GlcNAc
# How it was run: (§1)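 Glycan array data were curated from 3228 arrays in the Consortium for Functional Glycomics database and kept only where the protein sequence was available. Glycan names were converted to IUPAC-condensed notation, and columns mapping to the same glycan were averaged. The binding signal is a within-array Z-score, averaged across arrays of the same protein sequence at different concentrations or buffers and across linkers. Negative Z-scores can be read as non-binding.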
# [2] = molecular target: GalNAc4S6S(b1-4)GlcNAc
# How it was run: as §1
# [3] = molecular target: GalNAc6S(b1-4)GlcNAc
# How it was run: as §1
# [4] = molecular target: Glc(a1-4)Glc
# How it was run: as §1
# [5] = molecular target: Glc(a1-4)Glc(a1-4)Glc(a1-4)Glc
# How it was run: as §1
# [6] = molecular target: Glc(a1-6)Glc(a1-6)Glc
# How it was run: as §1
# [7] = molecular target: Glc(a1-6)Glc(a1-6)Glc(a1-6)Glc
# How it was run: as §1
# [8] = molecular target: Glc(b1-4)Glc
# How it was run: as §1
# [9] = molecular target: Glc(b1-6)Glc
# How it was run: as §1
# [10] = molecular target: GlcA(b1-3)Gal
# How it was run: as §1
# [11] = molecular target: GlcA(b1-3)GlcNAc
# How it was run: as §1
# [12] = molecular target: GlcA(b1-6)Gal
# How it was run: as §1
# [13] = molecular target: GlcA3S(b1-3)Gal(b1-4)GlcNAc(b1-2)Man
# How it was run: as §1
# [14] = molecular target: GlcA3S(b1-3)Gal(b1-4)GlcNAc(b1-3)Gal(b1-4)Glc
# How it was run: as §1
# [15] = molecular target: GlcNAc(a1-3)Gal(b1-4)GlcNAc
# How it was run: as §1
# [16] = molecular target: GlcNAc(a1-4)Gal(b1-3)GlcNAc
# How it was run: as §1
# [17] = molecular target: GlcNAc(a1-4)Gal(b1-4)GalNAc
# How it was run: as §1
# [18] = molecular target: GlcNAc(a1-4)Gal(b1-4)GlcNAc
# How it was run: as §1
# [19] = molecular target: GlcNAc(a1-4)Gal(b1-4)GlcNAc(b1-3)Gal(b1-4)Glc
# How it was run: as §1
# [20] = molecular target: GlcNAc(a1-4)Gal(b1-4)GlcNAc(b1-3)Gal(b1-4)GlcNAc
# How it was run: as §1
# [21] = molecular target: GlcNAc(a1-4)Gal(b1-4)GlcNAc(b1-3)Gal(b1-4)GlcNAc(b1-3)Gal(b1-4)GlcNAc
# How it was run: as §1
# [22] = molecular target: GlcNAc(a1-4)Gal(b1-4)GlcNAc(b1-3)Gal(b1-4)[Fuc(a1-3)]GlcNAc(b1-3)Gal(b1-4)[Fuc(a1-3)]GlcNAc
# How it was run: as §1
# [23] = molecular target: GlcNAc(a1-6)Gal(b1-4)GlcNAc
# How it was run: as §1
# [24] = molecular target: GlcNAc(b1-2)Gal(b1-3)GalNAc
# How it was run: as §1
# [25] = molecular target: GlcNAc(b1-2)Man(a1-3)[GlcNAc(b1-2)Man(a1-6)]Man(b1-4)GlcNAc(b1-4)GlcNAc
# How it was run: as §1
# [26] = molecular target: GlcNAc(b1-2)Man(a1-3)[GlcNAc(b1-2)Man(a1-6)]Man(b1-4)GlcNAc(b1-4)[Fuc(a1-6)]GlcNAc
# How it was run: as §1
# [27] = molecular target: GlcNAc(b1-2)Man(a1-3)[GlcNAc(b1-4)][GlcNAc(b1-2)Man(a1-6)]Man(b1-4)GlcNAc(b1-4)GlcNAc
# How it was run: as §1
# [28] = molecular target: GlcNAc(b1-2)Man(a1-3)[GlcNAc(b1-4)][GlcNAc(b1-2)Man(a1-6)]Man(b1-4)GlcNAc(b1-4)[Fuc(a1-6)]GlcNAc
# How it was run: as §1
# [29] = molecular target: GlcNAc(b1-2)[GlcNAc(b1-4)]Man(a1-3)[GlcNAc(b1-2)Man(a1-6)]Man(b1-4)GlcNAc(b1-4)GlcNAc
# How it was run: as §1
# [30] = molecular target: GlcNAc(b1-2)[GlcNAc(b1-4)]Man(a1-3)[GlcNAc(b1-4)][GlcNAc(b1-2)Man(a1-6)]Man(b1-4)GlcNAc(b1-4)GlcNAc
# How it was run: as §1
# [31] = molecular target: GlcNAc(b1-2)[GlcNAc(b1-4)]Man(a1-3)[GlcNAc(b1-4)][GlcNAc(b1-2)[GlcNAc(b1-6)]Man(a1-6)]Man(b1-4)GlcNAc(b1-4)GlcNAc
# How it was run: as §1
# [32] = molecular target: GlcNAc(b1-2)[GlcNAc(b1-4)]Man(a1-3)[GlcNAc(b1-4)][GlcNAc(b1-2)[GlcNAc(b1-6)]Man(a1-6)]Man(b1-4)GlcNAc(b1-4)[Fuc(a1-6)]GlcNAc
# How it was run: as §1
# [33] = molecular target: GlcNAc(b1-2)[GlcNAc(b1-6)]Man(a1-6)[GlcNAc(b1-2)Man(a1-3)]Man(b1-4)GlcNAc(b1-4)GlcNAc
# How it was run: as §1
# [34] = molecular target: GlcNAc(b1-2)[GlcNAc(b1-6)]Man(a1-6)[GlcNAc(b1-2)Man(a1-3)]Man(b1-4)GlcNAc(b1-4)[Fuc(a1-6)]GlcNAc
# How it was run: as §1
# [35] = molecular target: GlcNAc(b1-2)[GlcNAc(b1-6)]Man(a1-6)[GlcNAc(b1-4)][GlcNAc(b1-2)Man(a1-3)]Man(b1-4)GlcNAc(b1-4)GlcNAc
# How it was run: as §1
# [36] = molecular target: GlcNAc(b1-3)Fuc
# How it was run: as §1
# [37] = molecular target: GlcNAc(b1-3)Gal
# How it was run: as §1
# [38] = molecular target: GlcNAc(b1-3)Gal(b1-3)GalNAc
# How it was run: as §1
binder,measurement,setting,value
B1,glycan array binding signal (z-score),[1],-0.407
same,glycan array binding signal (z-score),[2],-0.446
same,glycan array binding signal (z-score),[3],-0.348
same,glycan array binding signal (z-score),[4],-0.208
same,glycan array binding signal (z-score),[5],-0.205
same,glycan array binding signal (z-score),[6],-0.345
same,glycan array binding signal (z-score),[7],-0.266
same,glycan array binding signal (z-score),[8],-0.092
same,glycan array binding signal (z-score),[9],-0.292
same,glycan array binding signal (z-score),[10],-0.385
same,glycan array binding signal (z-score),[11],-0.013
same,glycan array binding signal (z-score),[12],-0.349
same,glycan array binding signal (z-score),[13],-0.429
same,glycan array binding signal (z-score),[14],-0.423
same,glycan array binding signal (z-score),[15],-0.385
same,glycan array binding signal (z-score),[16],-0.427
same,glycan array binding signal (z-score),[17],-0.401
same,glycan array binding signal (z-score),[18],-0.402
same,glycan array binding signal (z-score),[19],-0.403
same,glycan array binding signal (z-score),[20],-0.411
same,glycan array binding signal (z-score),[21],-0.395
same,glycan array binding signal (z-score),[22],-0.278
same,glycan array binding signal (z-score),[23],-0.434
same,glycan array binding signal (z-score),[24],2.67
same,glycan array binding signal (z-score),[25],-0.267
same,glycan array binding signal (z-score),[26],-0.398
same,glycan array binding signal (z-score),[27],-0.389
same,glycan array binding signal (z-score),[28],1.03
same,glycan array binding signal (z-score),[29],-0.372
same,glycan array binding signal (z-score),[30],-0.376
same,glycan array binding signal (z-score),[31],-0.435
same,glycan array binding signal (z-score),[32],-0.2
same,glycan array binding signal (z-score),[33],-0.407
same,glycan array binding signal (z-score),[34],-0.241
same,glycan array binding signal (z-score),[35],-0.439
same,glycan array binding signal (z-score),[36],-0.302
same,glycan array binding signal (z-score),[37],-0.42
same,glycan array binding signal (z-score),[38],-0.192
